SMILES strings stand for the structures. Out of some 45,000 compounds screened, about 65 (0.1%) were called active. Calls come from the whole dose curve; as a rule, active = well fitted activation curve with a large enough effect; inconclusive = small, poorly fitted or top-dose-only effect; inactive = no such curve, though single readings can be large or run the other way. The list shows a part of the results.

Sequence of UniProt P54803 (P54803 whole entry, looked up): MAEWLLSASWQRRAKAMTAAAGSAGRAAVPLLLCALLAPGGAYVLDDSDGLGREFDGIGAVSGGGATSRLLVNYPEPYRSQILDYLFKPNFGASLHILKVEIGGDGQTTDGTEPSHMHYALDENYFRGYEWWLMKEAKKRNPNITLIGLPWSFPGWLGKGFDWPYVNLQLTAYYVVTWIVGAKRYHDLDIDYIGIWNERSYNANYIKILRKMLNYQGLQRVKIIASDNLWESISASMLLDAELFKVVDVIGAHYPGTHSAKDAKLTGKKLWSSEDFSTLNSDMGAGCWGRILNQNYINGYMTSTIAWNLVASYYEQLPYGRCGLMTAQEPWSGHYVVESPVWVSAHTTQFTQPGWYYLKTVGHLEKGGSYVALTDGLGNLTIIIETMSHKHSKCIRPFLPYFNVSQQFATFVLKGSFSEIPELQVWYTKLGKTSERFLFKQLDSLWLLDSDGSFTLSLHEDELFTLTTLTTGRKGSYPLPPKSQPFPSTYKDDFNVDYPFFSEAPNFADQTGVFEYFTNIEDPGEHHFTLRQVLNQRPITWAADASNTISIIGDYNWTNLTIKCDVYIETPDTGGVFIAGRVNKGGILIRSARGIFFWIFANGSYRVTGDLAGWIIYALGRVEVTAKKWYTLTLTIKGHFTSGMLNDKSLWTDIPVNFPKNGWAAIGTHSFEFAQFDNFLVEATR

The assay concerns the target Galactocerebrosidase (Homo sapiens) (UniProt P54803). The assay can be described thus: A Novel Cell-Based Assay to Identify Small Molecules for B -Galactocerebrosidase. Note: 0% is about no effect; nearly all actives have a fitted effect of over 65% in size. The note with it: 145M-Twi-hGALC-G270D cells (Twitcher mouse brain line with human GALC G270D), HMU-beta-Gal fluorescence, 48 h; series mostly up to 57.5 µM; activation: at the top concentration. Put shortly:
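Live 145M-Twi cells (Twitcher mouse brain-derived, GALC-null) stably expressing human GALC-G270D, with a wild-type GALC line, were compound-treated. Residual GALC activity was then read as fluorescence from 0.1 mM final HMU-β-gal at pH 5.2; higher signal means activation.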
Take `CC1=C(c2ccc(C(C)C)cc2)S(=O)(=O)N=C1N1CCC(C(=O)NCc2ccccc2)CC1`: the “activation” value is inactive: -4.99%.
In the case of `COc1ccc(CC(=O)Nc2cc(-c3cn4cccnc4n3)ccc2C)cc1OC` it was inactive: -2%; in that of `CCC(=O)Nc1ccc(CC)cc1-c1nc2ccccc2n(CC(=O)Nc2cccc(OC)c2)c1=O`, inactive: -11%.
As to `COc1cccc(C2=CC(c3ccccc3F)n3ncc(C(=O)Nc4ccc(C)cc4)c3N2)c1` (stereo not given), the “activation” value was inactive: -11.9%.
As to `Cc1ccc(CCNC(=O)c2sc3ncccc3c2-n2c(C)ccc2C)cc1`, the “activation” value was inactive: -17.9%.
As to `CC1CCCCN1c1c(S(=O)(=O)c2ccc(Cl)cc2)cnc2ccccc12` (stereo not given), the “activation” value is inactive: -8.06%.
In the case of `COc1ccc(C(=O)Nc2ccc3nc4c(c(Nc5ccc(OC)c(OC)c5)c3c2)CCCC4)c(OC)c1` it was inactive: -4.53%.
Consider `CCOC(=O)c1cc2c(=O)n3ccccc3nc2n(CC(C)C)c1=NC(=O)COc1ccc(Cl)cc1`, for which the “activation” value was inactive: -19.1%.
For `COc1ccc(-c2nc(CS(=O)CC(=O)NCCc3ccccc3)c(C)o2)cc1OC` (stereo not given), the “activation” value was inactive: -17.4%.
In the case of `Cc1cc(C)cc(-n2ccnc(NCCc3ccccc3)c2=O)c1` it was inactive: 2.96%; in that of `CCc1ccc(-n2c(=O)c3ccccc3n(CC(=O)NCCc3ccc(OC)c(OC)c3)c2=O)cc1`, inactive: -4.62%.
In the case of `COc1ccc(Cl)cc1NC(=O)NCCn1c(=O)oc2ccc(C)cc21`, the “activation” value was inactive: -13.2%.
Consider `COc1ccc(C)cc1NC(=O)N1CCC(CN2CCOCC2)CC1`, for which the “activation” value was inactive: -0.755%.
Consider `Cc1ccc(N(CC(=O)N2CCN(c3cccc(Cl)c3)CC2)S(=O)(=O)c2c(C)noc2C)cc1`, for which the “activation” value is inactive: -1.64%.
In the case of `Cc1ccc(Cl)cc1-n1nnc(-c2nsc(NC(=O)c3ccccc3Cl)n2)c1C` it was inactive: -11.3%.
Consider `COc1ccc(OC)c(NC(=O)CCCc2nnc3n(C(C)C)c(=O)c4sccc4n23)c1`, for which the “activation” value is inactive: -9.34%.
In the case of `CCn1cc2nc(SCc3cccc(C(F)(F)F)c3)n(Cc3ccc(Cl)cc3)c(=O)c2n1`, the “activation” value is inactive: -11.2%.
Turning to `Cc1ccc(C)c(N2CCN(C(=O)c3cnn(C(C)(C)C)c3C3CCN(C(=O)OC(C)(C)C)CC3)CC2)c1`, the “activation” value was inactive: -14.3%.
The same measure for `Cc1ccc2oc(C(=O)Nc3ccc(S(=O)(=O)N4CCCC(C)C4)cc3)cc(=O)c2c1` (stereo not given): inactive: -22.2%; for `COc1ccc(-c2cn3nc(N4CCC(C(=O)Nc5ccccc5OC)CC4)sc3n2)cc1`: inactive: 6%; for `CCN(CC)C(=O)c1sc2c(c1C)c(=O)n(-c1ccccc1)c(=O)n2Cc1c(C)cc(C)cc1C`: inactive: -3.17%.
Regarding `CCOc1ccc(NC(=O)CC2C(=O)N(c3ccccc3)C(=O)N2CCc2cccs2)cc1` (stereo not given), the “activation” value is inactive: -8.1%.
In the case of `Cn1cc(S(C)=O)c(=O)c2ccc(F)cc21` (stereo not given) it was inactive: -22%.
In the case of `Cc1ccc2cc3cc(C(=O)N4CCN(c5ccc(Cl)cc5)CC4)oc3nc2c1` it was inactive: -14.4%; in that of `Cc1ccccc1NC(=O)c1c(NC(=O)c2ccccc2)sc2c1CCC2`, inactive: -16.9%; in that of `CCN(CC)C(=O)c1ccc2c(c1)N(Cc1c(F)cccc1Cl)C(=O)c1ccccc1S2`, inactive: -9.92%.
The same measure for `CC(C)C(NS(=O)(=O)c1ccc2c(c1)oc(=O)n2C)C(=O)N1CCN(c2cccc(Cl)c2)CC1` (stereo not given): inactive: -14.6%.
For the compound `O=C(CSc1nc(=O)[nH]c2c1CCCC2)Nc1ccc(Cl)c(Cl)c1`, the “activation” value was inactive: -14.8%.
The same measure for `COc1ccc(N2CC(NC(=O)c3cccs3)CC2=O)cc1` (stereo not given): inactive: -8.27%; for `Cc1ccn2c(Nc3c(C)cccc3C)c(-c3ccsc3)nc2c1`: inactive: -11.4%; for `COC(=O)Cn1c(=NC(=O)c2ccc3c(c2)OCCO3)sc2ccccc21`: inactive: -18.3%.
In the case of `Cc1ccc(C(=O)n2nc(C)c(S(=O)(=O)N3CCCCCC3)c2C)cc1C` it was inactive: -6.07%; in that of `Cc1cc(N2CCN(C)CC2)nc2ccc(NC(=O)c3ccc(C(C)(C)C)cc3)cc12`, inactive: -10.2%.
In the case of `CCN(CC)S(=O)(=O)c1ccc(NC(=O)c2cc3ccc4cccnc4c3[nH]2)cc1` it was inactive: -9.15%; in that of `CN(Cc1ccccc1)c1nnc(NC(=O)Nc2cccc(Br)c2)s1`, inactive: -6.14%; in that of `Cc1ccc(-n2nc(C(=O)Nc3ccc(F)cc3Cl)c(=O)n(C)c2=O)cc1`, inactive: -14.1%.
As to `CCOC(=O)c1c(S(=O)(=O)N2CCC(C(=O)NCc3cccc(C)c3)CC2)c(C)n(C)c1C`, the “activation” value is inactive: -12.5%.
The same measure for `CCOc1cccc2sc(N3CCN(C(=O)c4ccc5c(c4)CCCC5)CC3)nc12`: inactive: -7.55%; for `COc1ccc(CNC(=O)c2nc(SCc3ccc(C)cc3)ncc2Cl)cc1`: inactive: -1.73%.
Take `CCc1nnc(NC(=O)CSc2nccn2Cc2ccc(C)cc2)s1`: the “activation” value was inactive: -9.03%.
For the compound `COc1ccccc1NC(=O)CSc1nc(O)c(C/C=C/c2ccccc2)c(=O)[nH]1`, the “activation” value is inactive: -6.6%.
Take `COc1ccc(Cn2c(=O)n(-c3ccc(F)c(Cl)c3)c(=O)c3c2c2cc(OC)ccc2n3C)cc1`: the “activation” value is inactive: -17.2%.
The same measure for `Cc1noc(NS(=O)(=O)c2ccc(N)cc2)c1C`: inactive: -9.4%; for `O=C(c1cccs1)N1CCCc2cc(NS(=O)(=O)c3ccc(Cl)cc3)ccc21`: inactive: -8.24%.
In the case of `COc1ccc(C(CNC(=O)c2ccc(C)cc2)N2CCOCC2)cc1` (stereo not given) it was inactive: -11.6%.
The same measure for `COc1ccc(NC(=O)c2cnc(SCC(=O)Nc3nc4ccc(C)cc4s3)n(C)c2=O)cc1`: inactive: -9.3%; for `CC(=O)c1ccc(NC(=O)Cn2c3ncccc3c(=O)n2-c2ccc(C)cc2)cc1`: inactive: 3.44%.
For `CCc1ccc(C2C(C(=O)Nc3ccccc3)=C(C)Nc3nc(SCC(=O)c4ccc(C)cc4)nn32)cc1` (stereo not given), the “activation” value is inactive: -8.08%.
In the case of `CCc1cccc2c3c([nH]c12)C(CC)(CC(=O)O)OCC3` (stereo not given), the “activation” value is inactive: -13.7%.
In the case of `O=C(c1ccco1)c1cn(CCOc2ccc(Cl)cc2)c2ccccc12` it was inactive: -19.4%; in that of `Cc1cccc(C(=O)NCC(c2ccc3c(c2)OCO3)N2CCOCC2)c1` (stereo not given), inactive: -5.55%.
Regarding `Cc1ccc(-c2noc(CSc3nnc(-c4ccc(Cl)cc4)n3C)n2)cc1`, the “activation” value is inactive: -18.7%.
In the case of `COc1ccccc1-c1cc(C(F)(F)F)nc(S(=O)(=O)CCCC(=O)Nc2cc(Br)ccc2O)n1`, the “activation” value was inactive: -0.353%.
In the case of `O=C(NCCc1ccccc1)C(=O)NCC(c1cccnc1)N1CCN(c2ccc(F)cc2)CC1` (stereo not given) it was inactive: -16.2%; in that of `CCC(=O)N1CCc2cc(CNC(=O)Nc3ccc(OC)cc3OC)ccc21`, inactive: -3.08%.
Regarding `O=C(CSc1nccn1Cc1ccccc1)NC1CCCC1`, the “activation” value was inactive: -14.8%.
With `CCCCC(=O)O[C@]1(C(=O)CO)CC[C@H]2[C@@H]3CCC4=CC(=O)CC[C@]4(C)[C@H]3[C@@H](O)C[C@@]21C`, the “activation” value was inactive: -12.3%.
The same measure for `COc1ccc(NC(=O)C2CCN(S(=O)(=O)c3c(C)noc3/C=C/c3ccco3)CC2)cc1`: inactive: -8.9%.
The same measure for `CCN(C(=O)CN(C)S(=O)(=O)c1ccc2c(c1)n(C)c(=O)c(=O)n2C)c1cccc(C)c1`: inactive: 0.794%; for `Cc1cccc(-c2noc(-c3ccc(N4CCCC4)c([N+](=O)[O-])c3)n2)c1`: inactive: -11.5%; for `COc1cccc(NC(=O)Cn2c(=O)n(-c3cccc(OC)c3)c(=O)c3c4c(sc32)CCCC4)c1`: inactive: -10.1%.
In the case of `COc1ccc(NS(=O)(=O)c2ccc3[nH]c4c(c3c2)CCCC4)c(OC)c1` it was inactive: -15.4%; in that of `O=C(CSCc1ccc(F)cc1)N1CCN(c2ccccc2)CC1`, inactive: -17%; in that of `Cc1cc(C)c(Cn2c(=O)n(CCCCCC(=O)NCc3ccc4c(c3)OCO4)c(=O)c3sccc32)c(C)c1`, inactive: -11.4%.
Turning to `CN(C)c1ccc(C(CNS(=O)(=O)c2cc(F)ccc2F)N2CCOCC2)cc1` (stereo not given), the “activation” value is inactive: -20.5%.
As for `CC1CCC(NC(=O)c2ccc3c(c2)N(Cc2cccc(Cl)c2)C(=O)c2ccccc2S3=O)CC1` (stereo not given), the “activation” value was inactive: 1.56%.
As to `O=C(NCc1ccc(Cl)cc1)C(=O)Nc1cccc(Br)c1`, the “activation” value was inactive: -2.51%.
The same measure for `O=C(Nc1ccc2oc(-c3ccc4ccccc4c3)nc2c1)c1cc(Br)ccc1Cl`: inactive: -14.2%.
In the case of `Cc1ccc(CN(C(=O)c2ccccc2Br)C2CCS(=O)(=O)C2)o1` (stereo not given) it was inactive: -9.56%; in that of `Cc1ccc(NC(=O)Nc2cc3c(cc2N2CCCCC2)n(C)c(=O)n3C)cc1Cl`, inactive: -10.7%; in that of `CCOc1ccccc1NC(=O)COc1cccc2c(=O)n(CCOC)ccc12`, inactive: -12.7%.
`Cn1c(=O)c2c(SCC(=O)NCc3ccco3)nc(-c3ccccc3F)nc2n(C)c1=O`: the “activation” value is inactive: -8.14%.
In the case of `Cc1cc(N2CCN(C)CC2)nc2ccc(NC(=O)Nc3ccccc3)cc12` it was inactive: -10.3%; in that of `COc1cccc(-n2c(=O)c3c4c(sc3n(Cc3ccc(F)cc3Cl)c2=O)CCCC4)c1`, inactive: -15.8%.
The same measure for `O=C(CCCc1nc(-c2ccco2)no1)Nc1ccccc1[N+](=O)[O-]`: inactive: -41.3%; for `CC(=O)Nc1c(C(=O)Nc2cccc(C)c2)nnn1-c1ccc(C)cc1`: inactive: -5.4%.
In the case of `CCOC(=O)c1ccc(NC(=O)c2c(C)oc3nc(C)nc(N4CCCC4)c23)cc1` it was inactive: -8.4%; in that of `CCC1CCCCN1S(=O)(=O)c1ccc(N2CCCCS2(=O)=O)cc1` (stereo not given), inactive: -20.9%.
`COc1ccc(C2=NN(C(C)=O)C(c3cn(-c4ccccc4)nc3-c3cccs3)C2)cc1` (stereo not given): the “activation” value was inactive: 1.75%.
In the case of `COc1ccc(-c2[nH]ncc2C(=O)NCc2cccc(F)c2)cc1` it was inactive: -8.61%; in that of `Cc1ccc(Cl)cc1N1CCN(C(=O)CCSCc2ccccc2F)CC1`, inactive: -12.3%.
In the case of `COc1ccc(NC(=O)c2oc3ccc(S(=O)(=O)N(C)C4CCCCC4)cc3c2C)cc1Cl` it was inactive: -4.3%; in that of `Cc1c(C(=O)Nc2ccc(Br)cc2F)oc2ccc(S(=O)(=O)N3CCC4(CC3)OCCO4)cc12`, inactive: 0.739%.
In the case of `CCc1ccc(-c2cc(C)no2)cc1S(=O)(=O)N1CCN(c2cccc(Cl)c2)CC1` it was inactive: -8.84%; in that of `Cc1ccc(-n2nc(-c3ccc(F)cc3)c3cnc4cc5c(cc4c32)OCO5)cc1C`, inactive: -0.705%.
For `CCc1ccc(NC(=O)CC(c2ccc(C)cc2)N2Cc3ccccc3C2=O)cc1` (stereo not given), the “activation” value is inactive: -7.74%.
In the case of `COCCNC(=O)c1ccc2nc(CCc3ccccc3)oc2c1` it was inactive: -19.8%; in that of `CCCN1CCN(c2ncnc3sc(C(=O)Nc4ccc(N(CC)CC)cc4C)c(C)c23)CC1`, inactive: 2.43%; in that of `O=C(CSCc1cnn(-c2ccccc2)c1-n1cccc1)NCc1ccccc1F`, inactive: -28.6%.
`COc1cccc(CNS(=O)(=O)c2cc(Br)cc3c2N(C(C)=O)C(C)C3)c1` (stereo not given): the “activation” value was inactive: -7.26%.
The same measure for `CCCCOc1ccc(S(=O)(=O)n2nc(C)c(S(=O)(=O)N3CCC(C)CC3)c2C)cc1`: inactive: -12.4%; for `CCCCN1CCCC1C(=O)Nc1c(C)cc(C)cc1C` (stereo not given): inactive: 1.55%.
In the case of `Cc1ccn2c(Nc3ccc4c(c3)OCO4)c(-c3ccc(O)cc3)nc2c1` it was inactive: -12.6%; in that of `CCCOC(=O)C(C)n1nnc2sc(-c3ccccc3)cc2c1=O` (stereo not given), inactive: -18.8%; in that of `Cc1ccc(-n2nc(C(=O)N3CCN(c4ccccc4)CC3)c(=O)n(C)c2=O)cc1`, inactive: -11.8%.

The values above are taken from PubChem BioAssay AID1159614 (National Center for Advancing Translational Sciences (NCATS), 2016).
